# Measurements from article PMC9911399, “Two distinct binding modes provide the RNA-binding protein RbFox with extraordinary sequence specificity”.
# Numbering of substitutions follows the chain as printed; changes in the protein carry UniProt numbers. The list shows a part of the results.
# B1: UGCAACA (DNA:RNA)
# RNA: GGGAGACCGGAAUUCAGAUUGUCCUGCAACAUUAAAUCCCGUCGUAGCCACCA
# DNA 1: CAATCTGAATTCCGGTCTCCC
# DNA 2: TGGTGGCTACGACGGGATT
# B2: CUACUAU (DNA:RNA)
# RNA: GGGAGACCGGAAUUCAGAUUGUCCCUACUAUUUAAAUCCCGUCGUAGCCACCA
# DNA 1: CAATCTGAATTCCGGTCTCCC
# DNA 2: TGGTGGCTACGACGGGATT
# B3: ACUAUUG (DNA:RNA)
# RNA: B2 RNA with C25A, U26C, A27U, C28A, A30U, U31G
# DNA 1: CAATCTGAATTCCGGTCTCCC
# DNA 2: TGGTGGCTACGACGGGATT
# B4: AAGAUCA (DNA:RNA)
# RNA: B1 RNA with U25A, G26A, C27G, A29U
# DNA 1: CAATCTGAATTCCGGTCTCCC
# DNA 2: TGGTGGCTACGACGGGATT
# B5: AUACCCC (DNA:RNA)
# RNA: B2 RNA with C25A, U29C, A30C, U31C
# DNA 1: CAATCTGAATTCCGGTCTCCC
# DNA 2: TGGTGGCTACGACGGGATT
# B6: GAGAGUA (DNA:RNA)
# RNA: B1 RNA with U25G, G26A, C27G, A29G, C30U
# DNA 1: CAATCTGAATTCCGGTCTCCC
# DNA 2: TGGTGGCTACGACGGGATT
# B7: CCCGUGC (DNA:RNA)
# RNA: B2 RNA with U26C, A27C, C28G, A30G, U31C
# DNA 1: CAATCTGAATTCCGGTCTCCC
# DNA 2: TGGTGGCTACGACGGGATT
# B8: AGCAACA (DNA:RNA)
# RNA: B1 RNA with U25A
# DNA 1: CAATCTGAATTCCGGTCTCCC
# DNA 2: TGGTGGCTACGACGGGATT
# B9: GGGGCCA (DNA:RNA)
# RNA: B1 RNA with U25G, C27G, A28G, A29C
# DNA 1: CAATCTGAATTCCGGTCTCCC
# DNA 2: TGGTGGCTACGACGGGATT
# B10: GAGACCA (DNA:RNA)
# RNA: B1 RNA with U25G, G26A, C27G, A29C
# DNA 1: CAATCTGAATTCCGGTCTCCC
# DNA 2: TGGTGGCTACGACGGGATT
# B11: UCCCAAU (DNA:RNA)
# RNA: B2 RNA with C25U, U26C, A27C, U29A
# DNA 1: CAATCTGAATTCCGGTCTCCC
# DNA 2: TGGTGGCTACGACGGGATT
# B12: GCUGAGA (DNA:RNA)
# RNA: B1 RNA with U25G, G26C, C27U, A28G, C30G
# DNA 1: CAATCTGAATTCCGGTCTCCC
# DNA 2: TGGTGGCTACGACGGGATT
# B13: UAGGAGG (DNA:RNA)
# RNA: B1 RNA with G26A, C27G, A28G, C30G, A31G
# DNA 1: CAATCTGAATTCCGGTCTCCC
# DNA 2: TGGTGGCTACGACGGGATT
# B14: GUGUGGA (DNA:RNA)
# RNA: B2 RNA with C25G, A27G, C28U, U29G, A30G, U31A
# DNA 1: CAATCTGAATTCCGGTCTCCC
# DNA 2: TGGTGGCTACGACGGGATT
# B15: AUUCUAC (DNA:RNA)
# RNA: B2 RNA with C25A, A27U, U31C
# DNA 1: CAATCTGAATTCCGGTCTCCC
# DNA 2: TGGTGGCTACGACGGGATT
# B16: UAGCUCA (DNA:RNA)
# RNA: B1 RNA with G26A, C27G, A28C, A29U
# DNA 1: CAATCTGAATTCCGGTCTCCC
# DNA 2: TGGTGGCTACGACGGGATT
# B17: AAAGAGC (DNA:RNA)
# RNA: B2 RNA with C25A, U26A, C28G, U29A, A30G, U31C
# DNA 1: CAATCTGAATTCCGGTCTCCC
# DNA 2: TGGTGGCTACGACGGGATT
# B18: CGAAGUA (DNA:RNA)
# RNA: B1 RNA with U25C, C27A, A29G, C30U
# DNA 1: CAATCTGAATTCCGGTCTCCC
# DNA 2: TGGTGGCTACGACGGGATT
# B19: AACAAGC (DNA:RNA)
# RNA: B1 RNA with U25A, G26A, C30G, A31C
# DNA 1: CAATCTGAATTCCGGTCTCCC
# DNA 2: TGGTGGCTACGACGGGATT
# B20: AUGGUUG (DNA:RNA)
# RNA: B2 RNA with C25A, A27G, C28G, A30U, U31G
# DNA 1: CAATCTGAATTCCGGTCTCCC
# DNA 2: TGGTGGCTACGACGGGATT
# B21: UCUGACC (DNA:RNA)
# RNA: B1 RNA with G26C, C27U, A28G, A31C
# DNA 1: CAATCTGAATTCCGGTCTCCC
# DNA 2: TGGTGGCTACGACGGGATT
# B22: UUUCCAA (DNA:RNA)
# RNA: B2 RNA with C25U, A27U, U29C, U31A
# DNA 1: CAATCTGAATTCCGGTCTCCC
# DNA 2: TGGTGGCTACGACGGGATT
# B23: AUUAAAU (DNA:RNA)
# RNA: B2 RNA with C25A, A27U, C28A, U29A
# DNA 1: CAATCTGAATTCCGGTCTCCC
# DNA 2: TGGTGGCTACGACGGGATT
# B24: GACCGAG (DNA:RNA)
# RNA: B2 RNA with C25G, U26A, A27C, U29G, U31G
# DNA 1: CAATCTGAATTCCGGTCTCCC
# DNA 2: TGGTGGCTACGACGGGATT
# B25: AAUUAGA (DNA:RNA)
# RNA: B1 RNA with U25A, G26A, C27U, A28U, C30G
# DNA 1: CAATCTGAATTCCGGTCTCCC
# DNA 2: TGGTGGCTACGACGGGATT
# B26: CGGAAUG (DNA:RNA)
# RNA: B1 RNA with U25C, C27G, C30U, A31G
# DNA 1: CAATCTGAATTCCGGTCTCCC
# DNA 2: TGGTGGCTACGACGGGATT
# B27: GAGCCGA (DNA:RNA)
# RNA: B2 RNA with C25G, U26A, A27G, U29C, A30G, U31A
# DNA 1: CAATCTGAATTCCGGTCTCCC
# DNA 2: TGGTGGCTACGACGGGATT
# B28: UCACGUG (DNA:RNA)
# RNA: B2 RNA with C25U, U26C, U29G, A30U, U31G
# DNA 1: CAATCTGAATTCCGGTCTCCC
# DNA 2: TGGTGGCTACGACGGGATT
# B29: GCCCACG (DNA:RNA)
# RNA: B1 RNA with U25G, G26C, A28C, A31G
# DNA 1: CAATCTGAATTCCGGTCTCCC
# DNA 2: TGGTGGCTACGACGGGATT
# B30: GUACUGU (DNA:RNA)
# RNA: B2 RNA with C25G, A30G
# DNA 1: CAATCTGAATTCCGGTCTCCC
# DNA 2: TGGTGGCTACGACGGGATT
# B31: UCUGCUU (DNA:RNA)
# RNA: B2 RNA with C25U, U26C, A27U, C28G, U29C, A30U
# DNA 1: CAATCTGAATTCCGGTCTCCC
# DNA 2: TGGTGGCTACGACGGGATT
# Molecular target: T1, RBFOX1 RRM RbFoxmut (Fox-RRM*) (Homo sapiens, UniProt Q9NWB1 109-208, R118D;E147R;N151S;E152T)
# T1 sequence: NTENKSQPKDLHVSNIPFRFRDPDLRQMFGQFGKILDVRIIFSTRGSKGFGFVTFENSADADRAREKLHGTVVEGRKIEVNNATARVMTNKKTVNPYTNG
# Test: EMSA; HiTS-Eq, 1 nM pool, 10 min; buffer printed only for the single-RNA assays: 10 mM Tris pH 7.5, 150 mM NaCl, 3.4 mM EDTA, 0.001% NP-40, 30 C
# Conditions: tags: His6 N-terminal (pET28a); label: 5' 32P
# Summary of the method: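 Purified RbFox RRM (wild type or mutant) was equilibrated for 10 min in 50 µL with 1 nM of a 5′-radiolabelled pool of RNA with 7 randomized nucleotides, its flanks annealed to DNA oligonucleotides, across increasing protein concentrations. Free RNA was separated by 8% native PAGE, excised, reverse-transcribed, PCR-barcoded and sequenced on an Illumina HiSeq 2500. Relative association constants came from read-count changes of each variant against the control reaction, normalised to the cognate motif.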
row,Binder,binding signal
1,B1,0.106 KA relative to UGCAUGU
2,B2,0.0859 KA relative to UGCAUGU
3,B3,0.149 KA relative to UGCAUGU
4,B4,0.081 KA relative to UGCAUGU
5,B5,0.0789 KA relative to UGCAUGU
6,B6,0.143 KA relative to UGCAUGU
7,B7,0.108 KA relative to UGCAUGU
8,B8,0.081 KA relative to UGCAUGU
9,B9,0.101 KA relative to UGCAUGU
10,B10,0.0628 KA relative to UGCAUGU
11,B11,0.102 KA relative to UGCAUGU
12,B12,0.0905 KA relative to UGCAUGU
13,B13,0.102 KA relative to UGCAUGU
14,B14,0.094 KA relative to UGCAUGU
15,B15,0.12 KA relative to UGCAUGU
16,B16,0.108 KA relative to UGCAUGU

row,Binder,binding signal
1,B17,0.071 KA relative to UGCAUGU
2,B18,0.153 KA relative to UGCAUGU
3,B19,0.0353 KA relative to UGCAUGU
4,B20,0.48 KA relative to UGCAUGU
5,B21,0.0992 KA relative to UGCAUGU
6,B22,0.0765 KA relative to UGCAUGU
7,B23,0.095 KA relative to UGCAUGU
8,B24,0.141 KA relative to UGCAUGU
9,B25,0.0645 KA relative to UGCAUGU
10,B26,1.43 KA relative to UGCAUGU
11,B27,0.0733 KA relative to UGCAUGU
12,B28,0.128 KA relative to UGCAUGU
13,B29,0.108 KA relative to UGCAUGU
14,B30,0.134 KA relative to UGCAUGU
15,B31,0.0935 KA relative to UGCAUGU
